Data on 50 sequences can be found in the supplement of paper PMC12645437, “Orthogonal IMiD-Degron Pairs Induce Selective Protein Degradation in Cells” (ACS Chemical Biology, 2025).

This is one part of the list.
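Note: jurkat cells carrying a lentiviral library of mutant zinc finger degrons fused to EGFP plus mCherry, mCherry+ cells FACS sorted, degron abundance counted by next-generation sequencing.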

The target in this test is no compound (DMSO). In words: log2 fold change of degron read counts, EGFP-low vs EGFP+ sorted cells; higher = lower degron-EGFP level without compound (poor expression or instability). Conditions: compound: DMSO control; 18 h.
In the case of FICNQCGHMFTQKGNLLRHIKL, the “log2 fold change of degron read counts” value is -0.217.

Consider LDCEICGFDCTQKGNLLRHIKL, for which the “log2 fold change of degron read counts” value is -0.408.

Turning to FRCNQCGRGFTQKGNLLRHIKL, the “log2 fold change of degron read counts” value was -0.174. For the sequence FHCNICGARFTQKGNLLRHIKL, the “log2 fold change of degron read counts” value is -0.214.

For FFCEQCGAPFTQKGNLLRHIKL, the “log2 fold change of degron read counts” value was -1.06.

Consider FFCEVCGAIFTQKGNLLRHIKL, for which the “log2 fold change of degron read counts” value stood at 0.0367. Turning to FCCEQCGARFTQKGNLLRHIKL, the “log2 fold change of degron read counts” value is -1.76. Regarding FRCDQCGAGFTQKGNLLRHIKL, the “log2 fold change of degron read counts” value is -1.37.

On to FGCNQCGRCFTQKGNLLRHIKL, for which the “log2 fold change of degron read counts” value stood at 0.738.

For FICSVCGHIFTQKGNLLRHIKL, the “log2 fold change of degron read counts” value was determined as 0.173. Consider FECEICGAHFTQKGNLLRHIKL, for which the “log2 fold change of degron read counts” value is -2.35.

In the case of LMCEICGFPCTQKGNLLRHIKL, the “log2 fold change of degron read counts” value was 0.237. Regarding FICNVCGAHFTQKGNLLRHIKL, the “log2 fold change of degron read counts” value is -0.377. On to FNCDICGAPFTQKGNLLRHIKL, for which the “log2 fold change of degron read counts” value was found to be 0.105. With FVCEQCGAWFTQKGNLLRHIKL, the “log2 fold change of degron read counts” value is -0.44. In the case of FDCDICGAIFTQKGNLLRHIKL, the “log2 fold change of degron read counts” value was found to be 0.217. On to FICDVCGACFTQKGNLLRHIKL, for which the “log2 fold change of degron read counts” value was -1.09. On to FTCPICGASFTQKGNLLRHIKL, for which the “log2 fold change of degron read counts” value was -0.244.

Regarding FQCEICGATFTQKGNLLRHIKL, the “log2 fold change of degron read counts” value was -0.398. Turning to FVCPICGRFFTQKGNLLRHIKL, the “log2 fold change of degron read counts” value is -0.0445.

Take FLCDQCGADFTQKGNLLRHIKL: the “log2 fold change of degron read counts” value is -0.968. In the case of FYCNICGAMFTQKGNLLRHIKL, the “log2 fold change of degron read counts” value came to 0.441. Consider FGCNQCGRKFTQKGNLLRHIKL, for which the “log2 fold change of degron read counts” value was -0.0368. As to FWCEICGAYFTQKGNLLRHIKL, the “log2 fold change of degron read counts” value worked out at 0.539. Take FNCEICGRQFTQKGNLLRHIKL: the “log2 fold change of degron read counts” value is -1.18.

Consider FCCEICGAYFTQKGNLLRHIKL, for which the “log2 fold change of degron read counts” value was -1.4. FICPICGRPFTQKGNLLRHIKL: the “log2 fold change of degron read counts” value was -0.573.

In the case of FWCPICGAAFTQKGNLLRHIKL, the “log2 fold change of degron read counts” value amounted to 0.711. With FLCEICGHIFTQKGNLLRHIKL, the “log2 fold change of degron read counts” value is -0.316. For FDCSVCGHPFTQKGNLLRHIKL, the “log2 fold change of degron read counts” value turned out to be 0.319. For FICPICGRVFTQKGNLLRHIKL, the “log2 fold change of degron read counts” value is 0.654. With FFCNVCGAPFTQKGNLLRHIKL, the “log2 fold change of degron read counts” value came out at 0.596. Turning to FWCEVCGANFTQKGNLLRHIKL, the “log2 fold change of degron read counts” value is -0.964. On to FWCPICGHLFTQKGNLLRHIKL, for which the “log2 fold change of degron read counts” value is 1.76. As to FECDQCGANFTQKGNLLRHIKL, the “log2 fold change of degron read counts” value is -3.12. As for FKCDQCGAQFTQKGNLLRHIKL, the figure is -1.64; as for FGCEVCGAEFTQKGNLLRHIKL, -1.1; as for FRCNVCGAQFTQKGNLLRHIKL, -0.729. For the sequence FCCEVCGAEFTQKGNLLRHIKL, the “log2 fold change of degron read counts” value was -1.87. As to FLCNVCGAVFTQKGNLLRHIKL, the “log2 fold change of degron read counts” value is 0.0239. For the sequence FCCPVCGADFTQKGNLLRHIKL, the “log2 fold change of degron read counts” value was -1.26. Turning to FKCPVCGAVFTQKGNLLRHIKL, the “log2 fold change of degron read counts” value was -0.0326. For the sequence FWCPICGRGFTQKGNLLRHIKL, the “log2 fold change of degron read counts” value is -1.11. For the sequence FICPQCGALFTQKGNLLRHIKL, the “log2 fold change of degron read counts” value turned out to be 0.618. As to FDCEICGHIFTQKGNLLRHIKL, the “log2 fold change of degron read counts” value was 0.701. As for FHCPICGHQFTQKGNLLRHIKL, the figure is -0.469; as for FMCNQCGRYFTQKGNLLRHIKL, 0.441; as for FWCNICGAQFTQKGNLLRHIKL, -0.163.

With FECPICGHTFTQKGNLLRHIKL, the “log2 fold change of degron read counts” value is -0.943.

For FLCNICGARFTQKGNLLRHIKL, the “log2 fold change of degron read counts” value was -0.809.
